# The list shows a part of the results.
# Legend:
# Assay in all cases: glycan array binding signal (z-score within array); higher = stronger binding
# Conditions in all cases: glycan notation: IUPAC condensed, linker removed
# Gal(b1-3)Gal(b1-4)GlcNAc = target: Gal(b1-3)Gal(b1-4)GlcNAc
# Method in brief: (§1)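 Glycan array data were curated from 3228 arrays in the Consortium for Functional Glycomics database and kept only where the protein sequence was available. Glycan names were converted to IUPAC-condensed notation, and columns mapping to the same glycan were averaged. The binding signal is a within-array Z-score, averaged across arrays of the same protein sequence at different concentrations or buffers and across linkers. Negative Z-scores can be read as non-binding.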
# [1] = target: Gal(b1-3)Gal(b1-4)GlcNAc(b1-2)Man(a1-3)[Gal(b1-3)Gal(b1-4)GlcNAc(b1-2)Man(a1-6)]Man(b1-4)GlcNAc(b1-4)GlcNAc
# Method in brief: as §1
# Gal(b1-3)GalNAc = target: Gal(b1-3)GalNAc
# Method in brief: as §1
# [2] = target: Gal(b1-3)GalNAc(a1-3)[Fuc(a1-2)]Gal(b1-4)Glc
# Method in brief: as §1
# [3] = target: Gal(b1-3)GalNAc(a1-3)[Fuc(a1-2)]Gal(b1-4)GlcNAc
# Method in brief: as §1
# [4] = target: Gal(b1-3)GalNAc(b1-3)Gal(a1-4)Gal(b1-4)Glc
# Method in brief: as §1
# [5] = target: Gal(b1-3)GalNAc(b1-4)Gal(b1-4)Glc
# Method in brief: as §1
# [6] = target: Gal(b1-3)GalNAc(b1-4)[Neu5Ac(a2-3)]Gal(b1-4)Glc
# Method in brief: as §1
# Gal(b1-3)GlcNAc = target: Gal(b1-3)GlcNAc
# Method in brief: as §1
# [7] = target: Gal(b1-3)GlcNAc(a1-6)Gal(b1-4)GlcNAc
# Method in brief: as §1
# [8] = target: Gal(b1-3)GlcNAc(b1-2)Man(a1-3)[Gal(b1-3)GlcNAc(b1-2)Man(a1-6)]Man(b1-4)GlcNAc(b1-4)GlcNAc
# Method in brief: as §1
# [9] = target: Gal(b1-3)GlcNAc(b1-2)Man(a1-3)[Gal(b1-3)GlcNAc(b1-2)Man(a1-6)]Man(b1-4)GlcNAc(b1-4)[Fuc(a1-6)]GlcNAc
# Method in brief: as §1
# [10] = target: Gal(b1-3)GlcNAc(b1-2)[Gal(b1-3)GlcNAc(b1-6)]Man(a1-6)[Gal(b1-3)GlcNAc(b1-2)Man(a1-3)]Man(b1-4)GlcNAc(b1-4)GlcNAc
# Method in brief: as §1
# [11] = target: Gal(b1-3)GlcNAc(b1-3)Gal(b1-3)GlcNAc
# Method in brief: as §1
# [12] = target: Gal(b1-3)GlcNAc(b1-3)Gal(b1-4)Glc
# Method in brief: as §1
# [13] = target: Gal(b1-3)GlcNAc(b1-3)Gal(b1-4)GlcNAc
# Method in brief: as §1
# [14] = target: Gal(b1-3)GlcNAc(b1-3)Gal(b1-4)GlcNAc(b1-6)[Gal(b1-3)GlcNAc(b1-3)]Gal(b1-4)Glc
# Method in brief: as §1
# [15] = target: Gal(b1-3)GlcNAc(b1-3)Gal(b1-4)[Fuc(a1-3)]GlcNAc(b1-6)[Gal(b1-3)GlcNAc(b1-3)]Gal(b1-4)Glc
# Method in brief: as §1
# [16] = target: Gal(b1-3)GlcNAc(b1-3)GalNAc
# Method in brief: as §1
# [17] = target: Gal(b1-3)GlcNAc(b1-6)Gal(b1-4)GlcNAc
# Method in brief: as §1
# [18] = target: Gal(b1-3)[Fuc(a1-4)]GlcNAc
# Method in brief: as §1
# [19] = target: Gal(b1-3)[Fuc(a1-4)]GlcNAc(b1-2)Man(a1-3)[Gal(b1-3)[Fuc(a1-4)]GlcNAc(b1-2)Man(a1-6)]Man(b1-4)GlcNAc(b1-4)GlcNAc
# Method in brief: as §1
# [20] = target: Gal(b1-3)[Fuc(a1-4)]GlcNAc(b1-2)Man(a1-3)[Gal(b1-3)[Fuc(a1-4)]GlcNAc(b1-2)Man(a1-6)]Man(b1-4)GlcNAc(b1-4)[Fuc(a1-6)]GlcNAc
# Method in brief: as §1
# [21] = target: Gal(b1-3)[Fuc(a1-4)]GlcNAc(b1-3)Gal(b1-3)[Fuc(a1-4)]GlcNAc
# Method in brief: as §1
# [22] = target: Gal(b1-3)[Fuc(a1-4)]GlcNAc(b1-3)Gal(b1-4)GlcNAc
# Method in brief: as §1
# [23] = target: Gal(b1-3)[Fuc(a1-4)]GlcNAc(b1-3)Gal(b1-4)[Fuc(a1-3)]GlcNAc
# Method in brief: as §1
# [24] = target: Gal(b1-3)[GlcNAc(b1-6)]GalNAc
# Method in brief: as §1
# [25] = target: Gal(b1-3)[Neu5Ac(a2-6)]GalNAc
# Method in brief: as §1
# [26] = target: Gal(b1-3)[Neu5Ac(a2-6)]GlcNAc(b1-6)Gal(b1-4)Glc
# Method in brief: as §1
# [27] = target: Gal(b1-3)[Neu5Ac(b2-6)]GalNAc
# Method in brief: as §1
# Gal(b1-4)Gal = target: Gal(b1-4)Gal
# Method in brief: as §1
# [28] = target: Gal(b1-4)GalNAc(a1-3)[Fuc(a1-2)]Gal(b1-4)GlcNAc
# Method in brief: as §1
# [29] = target: Gal(b1-4)GalNAc(b1-3)[Fuc(a1-2)]Gal(b1-4)GlcNAc
# Method in brief: as §1
# Gal(b1-4)Glc = target: Gal(b1-4)Glc
# Method in brief: as §1
# Gal(b1-4)Glc6S = target: Gal(b1-4)Glc6S
# Method in brief: as §1
# Gal(b1-4)GlcNAc = target: Gal(b1-4)GlcNAc
# Method in brief: as §1
# [30] = target: Gal(b1-4)GlcNAc(a1-6)Gal(b1-4)GlcNAc
# Method in brief: as §1
# Gal(b1-4)GlcNAc(b1-2)Man = target: Gal(b1-4)GlcNAc(b1-2)Man
# Method in brief: as §1
binder,measurement,setting,value
"FedF (Escherichia coli), Q47212 (protein) MRLKYILIIPLLLISLSVFASTLQVDKSVSYDWINSSASSAQVTGTLLGTGKTNTTQMPALYTWQHQIYNVNFIPSSSGTLTCQAGTILVWKNGRETQYALECRVSIHHSSGSINESQWGQQSQVGFGTACGNKKCRFTGFEISLRIPPNAQTYPLSSGDLKGSFSLTNKEVNWSASIYVPAIAKSYRLDTSITLPDTVNLKQNQATPVYYTFSAPSVSNTITGIPNQNDMPSSNVKLTIGPIQSKTTALYVQPDATGSWYDLSKSITMTVVKSSMLNFKGINAKPGNVTLSVPIVFEIQ",glycan array binding signal (z-score),Gal(b1-3)Gal(b1-4)GlcNAc,-0.144
same,glycan array binding signal (z-score),[1],-0.118
same,glycan array binding signal (z-score),Gal(b1-3)GalNAc,-0.092
same,glycan array binding signal (z-score),[2],-0.185
same,glycan array binding signal (z-score),[3],-0.088
same,glycan array binding signal (z-score),[4],-0.187
same,glycan array binding signal (z-score),[5],-0.415
same,glycan array binding signal (z-score),[6],-0.287
same,glycan array binding signal (z-score),Gal(b1-3)GlcNAc,-0.291
same,glycan array binding signal (z-score),[7],-0.2
same,glycan array binding signal (z-score),[8],-0.118
same,glycan array binding signal (z-score),[9],0.741
same,glycan array binding signal (z-score),[10],-0.215
same,glycan array binding signal (z-score),[11],-0.184
same,glycan array binding signal (z-score),[12],-0.188
same,glycan array binding signal (z-score),[13],-0.439
same,glycan array binding signal (z-score),[14],-0.197
same,glycan array binding signal (z-score),[15],-0.196
same,glycan array binding signal (z-score),[16],-0.136
same,glycan array binding signal (z-score),[17],-0.181
same,glycan array binding signal (z-score),[18],-0.25
same,glycan array binding signal (z-score),[19],-0.19
same,glycan array binding signal (z-score),[20],-0.09
same,glycan array binding signal (z-score),[21],-0.049
same,glycan array binding signal (z-score),[22],-0.422
same,glycan array binding signal (z-score),[23],-0.274
same,glycan array binding signal (z-score),[24],-0.315
same,glycan array binding signal (z-score),[25],-0.211
same,glycan array binding signal (z-score),[26],0.106
same,glycan array binding signal (z-score),[27],-0.239
same,glycan array binding signal (z-score),Gal(b1-4)Gal,-0.145
same,glycan array binding signal (z-score),[28],-0.527
same,glycan array binding signal (z-score),[29],-0.484
same,glycan array binding signal (z-score),Gal(b1-4)Glc,-0.274
same,glycan array binding signal (z-score),Gal(b1-4)Glc6S,0.143
same,glycan array binding signal (z-score),Gal(b1-4)GlcNAc,-0.188
same,glycan array binding signal (z-score),[30],-0.099
same,glycan array binding signal (z-score),Gal(b1-4)GlcNAc(b1-2)Man,-0.043
